Measured values from publication PMC5571287 (Antimicrobial Agents and Chemotherapy, 2017).
Read-outs that look alike come from different tables or passages of the source.

What was measured:
RSVB HAN1135 [1] = test: microbe, parasite or virus in culture; type: cell-based; conditions: human respiratory syncytial virus, RSVB HAN1135, clinical
RSVB HAN1135 [2] = conditions: human respiratory syncytial virus
RSVA Memphis 37c [3] = conditions: human respiratory syncytial virus
[4] = system: low-passage RSV A clinical isolates (x5 A); test: microbe, parasite or virus in culture; conditions: human respiratory syncytial virus
[5] = system: low-passage RSV A clinical isolates (x5 A); test: microbe, parasite or virus in culture; type: cell-based; conditions: human respiratory syncytial virus
RSVB PEP121 [6] = conditions: human respiratory syncytial virus
RSVA VAN1160 [7] = conditions: human respiratory syncytial virus
RSVA VAN1160 [8] = test: microbe, parasite or virus in culture; type: cell-based; conditions: human respiratory syncytial virus, RSVA VAN1160, clinical
RSVA Memphis 37c [9] = test: microbe, parasite or virus in culture; type: cell-based; conditions: human respiratory syncytial virus, clinical
[10] = system: low-passage RSV B clinical isolates (x5 B); test: microbe, parasite or virus in culture; conditions: human respiratory syncytial virus
RSVB PEP121 [11] = test: microbe, parasite or virus in culture; type: cell-based; conditions: human respiratory syncytial virus, RSVB PEP121, clinical, 3 parameter curve fit
[12] = system: low-passage RSV B clinical isolates (x5 B); test: microbe, parasite or virus in culture; type: cell-based; conditions: human respiratory syncytial virus
[13] = HEp-2, read-out: RSV titre in supernatant IC50 (0.3 Log PFUe reduction) (converted)
[14] = HEp-2, read-out: RSV titre in supernatant IC90 (1 Log PFUe reduction) (converted)
[15] = read-out: CPE assay IC50, median
[16] = read-out: CPE assay IC90, median
[17] = read-out: CPE assay IC90, range

Cc1cnc(N2CC3(CCOCC3)C2)c(C(=O)Nc2ccc(C(=O)N3CCc4cc(C(=O)Nc5c(C)cccc5F)sc4-c4ccccc43)cc2)c1 [PC786, N-(2-fluoro-6-methylphenyl)-6-(4-(5-methyl-2-(7-oxa-2-azaspiro[3.5]nonan-2-yl)nicotinamido)benzoyl)-5,6-dihydro-4H-benzo[b]thieno[2,3-d]azepine-2-carboxamide]
IC50 (RSVB HAN1135 [1]; read-out: CPE IC50): 25.8 nM
IC90 (RSVB HAN1135 [1]; read-out: CPE IC90): 27.4 nM
IC50 (RSVB HAN1135 [2]; [13]): 8.1 nM
IC90 (RSVB HAN1135 [2]; [14]): 34 nM
IC50 (RSVA Memphis 37c [3]; [13]): 0.53 nM
IC90 (RSVA Memphis 37c [3]; [14]): 1.16 nM
IC50 ([4]; read-out: PCR IC50, median): 0.54 nM
IC50 ([4]; read-out: PCR IC50, range): 0.09 to 0.64 nM
IC90 ([4]; read-out: PCR IC90, median): 0.95 nM
IC90 ([4]; read-out: PCR IC90, range): 0.5 to 1.16 nM
IC50 [5, 15]: 0.42 nM
IC50 ([5]; read-out: CPE assay IC50, range): 0.09 to 0.71 nM
IC90 [5, 16]: 1.77 nM
IC90 [5, 17]: 0.57 to 3.77 nM
IC50 (RSVB PEP121 [6]; [13]): 17.7 nM
IC90 (RSVB PEP121 [6]; [14]): 27.4 nM
IC50 (RSVA VAN1160 [7]; [13]): 0.64 nM
IC90 (RSVA VAN1160 [7]; [14]): 0.91 nM
IC50 (RSVA VAN1160 [8]; read-out: CPE IC50): 0.71 nM
IC90 (RSVA VAN1160 [8]; read-out: CPE IC90): 1.93 nM
IC50 (RSVA Memphis 37c [9]; read-out: CPE IC50): 0.22 nM
IC90 (RSVA Memphis 37c [9]; read-out: CPE IC90): 3.77 nM
IC50 ([10]; read-out: PCR IC50, median): 12.1 nM
IC50 ([10]; read-out: PCR IC50, range): 8.1 to 17.7 nM
IC90 ([10]; read-out: PCR IC90, median): 21.7 nM
IC90 ([10]; read-out: PCR IC90, range): 12.3 to 34 nM
IC50 (RSVB PEP121 [11]; read-out: CPE IC50): 17.5 nM
IC90 (RSVB PEP121 [11]; read-out: CPE IC90): 196 nM
IC50 [12, 15]: 17.5 nM
IC90 [12, 16]: 360 nM
IC90 [12, 17]: 27.4 to 821 nM
